± gives the standard deviation of the averaged measurements. Some of the results follow.
These sequences were tested on PfAP2-G AP2 domain (GST-tagged) (assay: gcPBM binding intensity (ln(normalized median fluorescence intensity)); higher = stronger DNA binding).
Method in brief: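 Plasmodium falciparum DNA-binding domains carrying a GST tag were expressed in E. coli and applied for 1 h, at about 25 μg on average, to an Agilent 4 × 180k array. The array held primer-extended double-stranded 36-bp intergenic genomic probes together with negative controls, and binding took place in 1× PBS with 1% milk, 0.2 mg/ml BSA, 0.5% salmon testes DNA and 0.03% Triton X-100. An Alexa488 anti-GST antibody detected bound protein, and the array was scanned at 488 nm. Binding intensity is taken as the highest Masliner-normalised natural-log median intensity across replicate spots of either probe orientation.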
“AATAAAAAACATGAAAGTACTTTAAAAAAGGTAATA [XGTACX_site1897]” was tested, and the “gcPBM binding intensity (ln)” value was 11.1 ± 0.35.
“AAGTACATACATAAAACACACACATATATATATATA [CACACA_site8541]” was tested, and the “gcPBM binding intensity (ln)” value was 10.5 ± 0.35.
“AATATATAAATCAATAGTACATATATATATATATAT [XGTACX_site3898]” was tested, and the “gcPBM binding intensity (ln)” value was 10.7 ± 0.53.
With “AAAATTAAATAAAAATGTACAGAAATATTATATGAA [XGTACX_site5695]” the “gcPBM binding intensity (ln)” value was 11 ± 0.57.
With “ATATATTATATTAATTGTACATAAAAAAGAGAAAAA [XGTACX_site3366]” the “gcPBM binding intensity (ln)” value was 11.1 ± 0.61.
For “TTATATTTATAAAGGTGTACCTTAAAATGATTTTAC [XGTACX_site3774]”, the “gcPBM binding intensity (ln)” value was 11.4 ± 0.88.
With “CCAAAAAATATATGTAGTACTACATTATTAAATATG [XGTACX_site5128]” the “gcPBM binding intensity (ln)” value was 11.6 ± 0.83.
For “AAATTCAATTTGCGCTGTACATGAAGATATAAATTT [XGTACX_site4844]”, the “gcPBM binding intensity (ln)” value was 10.9 ± 0.38.
For “ATACCTGTTGTGTTACGTACATAATTTTAATGTTTG [XGTACX_site8181]”, the “gcPBM binding intensity (ln)” value was 11.5 ± 0.59.
In the case of “TATAATATATTCACTCGTACATATTTAATAATATCT [XGTACX_site6209]”, the “gcPBM binding intensity (ln)” value is reported as 10.9 ± 0.52.
“ACAGTATATTAAAAAATACACACGTATTATATCTAC [CACACA_site2640]” was tested, and the “gcPBM binding intensity (ln)” value was 10.3 ± 0.26.
With “AAAAAAAACACGCGCACACACACACCCACAGACACA [CACACA_site5253]” the “gcPBM binding intensity (ln)” value was 10.7 ± 0.39.
In the case of “TATATATATAAATACACACACACACCCCAAAGCGTA [CACACA_site4211]”, the “gcPBM binding intensity (ln)” value is reported as 10.4 ± 0.42.
In the case of “TATTTTTTAAAAAATTATAAATAAAATTATATTACG [CACACA_negctrl_site324]”, the “gcPBM binding intensity (ln)” value is reported as 9.71 ± 0.099.
For “TATATATATATAATATGTACATATATTAAGCATTTT [XGTACX_site4470]”, the “gcPBM binding intensity (ln)” value was 11.1 ± 0.61.
With “AAAAAAAAAAATTAAAGTACTAATTAAAATTATATG [XGTACX_site5289]” the “gcPBM binding intensity (ln)” value was 10.9 ± 0.62.
For TATTACACATATTATGTGCACATATATAATCAATAT, the “gcPBM binding intensity (ln)” value was 10.5 ± 0.27.
With “ATTTTATTTTTGTGCACACTGATAAATTGAAAAGAG [CACACA_site2948]” the “gcPBM binding intensity (ln)” value was 10.8 ± 0.57.
“TTTTAATTAAATAAATGTACTCATTCTATTATTTAT [XGTACX_site3032]” was tested, and the “gcPBM binding intensity (ln)” value was 11.3 ± 0.75.
With “ATAAATTTTTTATGAACACACAAATACCCACGCTCA [CACACA_site2659]” the “gcPBM binding intensity (ln)” value was 10.7 ± 0.4.
With “ATATTCTGATTTTAGATGCACTTCGTTAACAAAATA [GTGCAC_site9958]” the “gcPBM binding intensity (ln)” value was 10.05 ± 0.078.
“ATATATATATTTATATGTACATAATATAAAATTTCT [XGTACX_site3720]” was tested, and the “gcPBM binding intensity (ln)” value was 11.2 ± 0.76.
For “TATATAATATTCTACACACCAACAACAAACATATAT [CACACA_site567]”, the “gcPBM binding intensity (ln)” value was 10.3 ± 0.17.
In the case of “TATCATATATTATATGCACACATGTTTTTCAAGAAT [CACACA_site1892]”, the “gcPBM binding intensity (ln)” value is reported as 10.1 ± 0.2.
In the case of “TTATATATATGTGTATGTACATATATATATATATAT [XGTACX_site1141]”, the “gcPBM binding intensity (ln)” value is reported as 11.1 ± 0.62.
In the case of “AAACGTAACATATATATATATATATATAAGATATAT [CACACA_negctrl_site126]”, the “gcPBM binding intensity (ln)” value is reported as 9.6 ± 0.16.
With “ATATTTGTATAAATTGCACACTTTATTTTTTTTAAG [CACACA_site1558]” the “gcPBM binding intensity (ln)” value was 9.99 ± 0.014.
“ATGTTATTACATAATTGTACATTTTGAGCAATTAAG [XGTACX_site4640]” was tested, and the “gcPBM binding intensity (ln)” value was 10.7 ± 0.49.
In the case of “ATAAATCTACACCGCACACAAAAACAACAAATATTA [CACACA_site5396]”, the “gcPBM binding intensity (ln)” value is reported as 10.2 ± 0.22.
With “AATGAATATATATAAATATATATATATATATATATA [CACACA_negctrl_site1494]” the “gcPBM binding intensity (ln)” value was 9.89 ± 0.65.
For “TTTTTTTTTTTTTCTTCACACACAGTACTACTATTT [CACACA_site8759]”, the “gcPBM binding intensity (ln)” value was 11.2 ± 0.95.
For “TTAGCTTTTTTTTAAACATGCAACTACTTGATCCAC [TGCATGCA_site1017]”, the “gcPBM binding intensity (ln)” value was 10.1 ± 0.3.
“TATGTGAATCCTAAGTGTACACATCTTACATATATA [XGTACX_site2506]” was tested, and the “gcPBM binding intensity (ln)” value was 11.6 ± 0.8.
In the case of “AGTATACGCAGACACACACACACATATATATATATA [CACACA_site1735]”, the “gcPBM binding intensity (ln)” value is reported as 10.3 ± 0.37.
In the case of “TATTTATTATTATGTACACACTATATTAAAACATAA [CACACA_site4549]”, the “gcPBM binding intensity (ln)” value is reported as 11.4 ± 0.86.
In the case of “AAATGTGTAAATATAATTAGTTTCACAAAACAAATA [GTGCAC_negctrl_site543]”, the “gcPBM binding intensity (ln)” value is reported as 9.9 ± 0.25.
With “GGTATATGCATAAAGAGTACGTAACTTCTTTTTGTT [XGTACX_site6344]” the “gcPBM binding intensity (ln)” value was 11.2 ± 0.59.
In the case of “ATAAGATGATTAATTACACACTTTATAGGATATTTA [CACACA_site1711]”, the “gcPBM binding intensity (ln)” value is reported as 9.68 ± 0.13.
For “AAAAATAAATAAAGTGGTACATAAAAAAGAGAAATT [XGTACX_site874]”, the “gcPBM binding intensity (ln)” value was 11.5 ± 0.87.
In the case of “GTGCATATGTAGATATGTACATATTTATTTATTATT [XGTACX_site7343]”, the “gcPBM binding intensity (ln)” value is reported as 11.1 ± 0.64.
In the case of “TATATAAGGATATATACACACATATAGGTATTTATA [CACACA_site7092]”, the “gcPBM binding intensity (ln)” value is reported as 9.88 ± 0.028.
“TCAGGAATATAAAGTGCACACATAATTTGGGGGCAA [CACACA_site7974]” was tested, and the “gcPBM binding intensity (ln)” value was 11.1 ± 0.73.
For “TTTTAAAAAAATAAAAAATAATAAAAAAAATAAAAA [CACACA_negctrl_site1693]”, the “gcPBM binding intensity (ln)” value was 9.46 ± 0.014.
“AATATGATTATTACCCGTACATATTACCTTATGGTA [XGTACX_site1714]” was tested, and the “gcPBM binding intensity (ln)” value was 10.9 ± 0.48.

From the supplement of paper PMC11417369
